Reference: PubChem BioAssay AID1963576 (National Center for Advancing Translational Sciences (NCATS), 2024)
In all, about 46,000 compounds went through this assay and about 60 (0.1%) were called active. About 3% were inconclusive and are not listed. The call rests on the fitted dose curve; in most records, active means well fitted inhibition curve with a large enough effect; inconclusive means small, poorly fitted or top-dose-only effect; inactive means no such curve, though single readings can be large or run the other way. The list shows a part of the results.

Experiment: Primary qHTS assay for Inhibitors of ovarian cancer metastasis using an organotypic tumor microenvironment (TME) model. Further: nearly all actives have a fitted effect of over 65% in size.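 On activity change, negative = inhibition: plate controls were DMSO wells for no effect and tomatine positive control wells for full effect.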
Conditions: SKOV3ip1-GFP adhesion/invasion on 3D omental model, fluorescence; series mostly up to 45.8 µM; activity change, negative = inhibition: at the top concentration
Procedure, shortened: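 Primary human omental fibroblast/mesothelial 3D culture pre-formed 48 h. SKOV3ip1-GFP cells added with compounds (0.36-46 umol/L), incubated 2 h RT/16 h 37 C, fixed; GFP cells quantified at 488/509 nm.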

outcome, inactive:
O=C(NCc1ccco1)c1ccc2c(c1)N(Cc1ccccc1F)C(=O)c1ccccc1S2=O (configuration not stated), CCn1cc(C(=O)N2CCN(c3ccc(OC)cc3)CC2)c(=O)c2cc(S(=O)(=O)N(C)C3CCCCC3)ccc21, CCOc1ccc(S(=O)(=O)N(C(=O)c2ccncc2)c2ccc3oc(C)c(C(=O)OC)c3c2)cc1, COc1ccc(C)cc1NC(=O)CC(=O)Nc1ccc2nc3n(c(=O)c2c1)CCCCC3, COc1cccc(Cn2c(CNS(=O)(=O)c3ccc4c(c3)CCCC4)nc3cccnc32)c1, CC(=O)c1ccc(NC(=O)Cn2ncc3c(C)n(Cc4ccc(F)cc4)c(C)c3c2=O)cc1, CC1CCN(S(=O)(=O)c2ccc3c(c2)N(CC(=O)N2CCN(c4ccccc4)CC2)C(=O)CO3)CC1, COc1ccc(NC(=O)CN2C(=O)CCc3cc(S(=O)(=O)N4CCOCC4)ccc32)cc1Cl, COc1cc2c(C(=O)N(C)c3cc(Cl)ccc3OC)cn(CC(C)C)c(=O)c2cc1OC, COc1ccccc1NC(=O)CSC1=Nc2ccccc2N=C(c2ccc(F)cc2)C1, CCc1ccc(CNC(=O)COc2cc(=O)n(CC)c3ccccc23)cc1, COC(=O)c1c(NC(=O)c2nc(SCc3cccc(C)c3)ncc2Cl)sc2c1CCCC2, COc1ccc(-n2nnc(-c3nc(-c4cccs4)no3)c2N)cc1OC, Cc1ccc(C)c(CNC(=O)C2CCN(c3nc4ccccc4nc3C(F)(F)F)CC2)c1, CCNC(=O)c1ccc2nc(CCc3ccccc3)oc2c1, COc1ccc2nc(N(Cc3cccnc3)C(=O)C3COc4ccccc4O3)sc2c1 (configuration not stated), O=C(CN1CCSc2ccccc21)NCc1ccccc1F, COc1cc(C)ccc1OCCSc1nc(-c2cccc(C)c2)nc2cc(=O)[nH]n12, Cc1ccc(N(C)C(=O)Cn2cnc3onc(-c4ccc(F)cc4)c3c2=O)cc1C, Cc1ccc2ncc(C(=O)NCCc3ccc(S(N)(=O)=O)cc3)c(=O)n2c1, O=C(c1ccc(Cl)cc1)N(Cc1ccco1)Cc1ccco1, COc1cccc(CNC(=O)CNS(=O)(=O)c2ccc3nc(C)sc3c2)c1

Activity change, negative = inhibition, inactive:
COc1ccc(NC(=O)CSC2=Nc3ccccc3C3=NC(CCC(=O)NCCc4ccccc4)C(=O)N23)c(OC)c1 (configuration not stated) 2.82%, COc1cccc(CNC(=O)c2nn(C)c3c2CS(=O)(=O)c2ccccc2-3)c1 2.69%, CC(C)CN(CCCNC(=O)c1cn(C)c2ccc(S(=O)(=O)N(C)C3CCCCC3)cc2c1=O)CC(C)C 1.29%, COc1cccc(NC(=O)C(CCSC)NC(=O)C2CCC(C)CC2)c1 (configuration not stated) -2.76%, COc1ccc(CNC(=O)c2cc(C)nc3c2c(C)nn3-c2cccc(Cl)c2C)cc1 -4.11%, Cc1cccc(OC(=O)c2cc(-c3ccc(Cl)cc3)on2)c1C 1.27%, CCOc1ccc(C2=CC(c3cc(Br)ccc3F)n3ncnc3N2)cc1Cl (configuration not stated) 2.96%, CC[C@@]1(O)C[C@H](O[C@H]2C[C@H](N(C)C)[C@H](O[C@H]3C[C@H](O)[C@H](O[C@H]4CCC(=O)[C@H](C)O4)[C@H](C)O3)[C@H](C)O2)c2c(cc3c(c2O)C(=O)c2c(O)cccc2C3=O)[C@@H]1C(=O)OC 5.82%, O=C(NCCc1csc(-c2ccc(F)cc2)n1)c1c(F)cccc1Cl -4.28%, O=C(COC(=O)c1cc(-c2ccccc2)nc2c(Cl)cccc12)c1ccc(F)cc1 -6.51%, CN(C(=O)CSc1nc2ccccc2n1Cc1cccc(C(F)(F)F)c1)c1ccccc1 -7.38%, CCOc1ccc(-n2c(=O)c3c(C)c(C)sc3n(Cc3cc(=O)n4cc(Cl)ccc4n3)c2=O)cc1 -2.54%, CC(C)CSc1oc(-c2ccco2)nc1S(=O)(=O)c1ccc(Br)cc1 -1.03%, Cc1nn(CC(=O)Nc2cccc(C(F)(F)F)c2)c(=O)c2nn(-c3ccccc3)c(C)c12 -3.57%, COc1ccccc1CN1CCN(C2CCN(C(=O)NC(C)C)CC2)C(=O)C1=O -4.28%, CN(C)CCOc1cc(-c2cn[nH]c2)ccc1NC(=O)C1COc2ccccc2O1 (configuration not stated) 16.6%, COc1ccc(Nc2ncc3c(n2)CCN(C(=O)OC(C)(C)C)C3)cc1 16.9%, Cc1ccc(NC(=O)c2ccc3[nH]c(C)cc(=O)c3c2)c(C)c1 -1.12%, Cc1ccc(NC(=O)Cc2coc3c(C)c(C)ccc23)cc1Cl -21.5%, Cc1ccc(Nc2cc(C(=O)NCc3cccs3)c3ccccc3n2)c(C)c1 11.3%, Cc1ccc(CCNC(=O)c2cc(-c3ccc(Cl)cc3)n[nH]2)cc1 -14.6%, CCOc1ccccc1C(=O)N(Cc1cccs1)c1ccc(Cl)cc1 -6.56%, COc1cc2ccccc2cc1C(=O)Nc1ccc2oc(-c3ccccc3)nc2c1 -22.9%, Cc1ccccc1CNC(=O)CCC(=O)N1CC2CCCN2c2ccccc21 (configuration not stated) -1.71%, Cc1cc(O)c(-c2ccnc3cc(-c4ccccc4)nn23)cc1Cl 6.28%, CCc1ccc2c(c1)-c1ccccc1S(=O)(=O)N2CC(=O)N1CCC(C)CC1 -1.55%, COc1ccccc1CNc1ncnc2c1c(-c1ccccc1)cn2-c1cccc(C)c1 -14.8%, COc1ccccc1C(=O)Nc1nc2nc(C)c(Cc3ccccc3)c(=O)n2[nH]1 -3.65%, Cc1ccc(NC(=O)Cn2c(-c3cncs3)nc3ccccc32)cc1Br -1.64%, CCCc1nccn1S(=O)(=O)c1cc(Br)ccc1OC -6.11%, Cc1nn(CCCC(=O)Nc2cccc(F)c2)c(=O)c2c1sc1ccccc12 -0.284%, CCN(C(=O)Cn1c(=O)n(CC2CCC(C(=O)NC)CC2)c(=O)c2sccc21)c1ccccc1 (configuration not stated) 0.893%, O=C(Nc1ccccc1)c1cn(-c2ccccc2)nc1-c1ccccc1 5.14%, Cc1cccc(-n2c3nc(=O)[nH]c(=O)c-3cc3c(C)nn(-c4ccccc4)c32)c1C -5.67%, CC(=O)N1CCCC1c1nc2ccccc2n1Cc1cccc(Cl)c1 (configuration not stated) -2.98%, COc1ccc(-c2nc(C)c(CCNC(=O)C(=O)Nc3ccccc3C#N)s2)cc1OC -1.6%, COc1cc(C2CC(=O)c3c([nH]c(C(=O)OCC4CCCCC4)c3C)C2)cc(OC)c1OC (configuration not stated) 18.4%, CC1=C(c2ccc(F)cc2)S(=O)(=O)NC1=NCc1ccccc1F 12.7%, Cc1ccc(-c2noc(-c3ccc(NCc4ccco4)c([N+](=O)[O-])c3)n2)cc1 -9.33%, COc1cc(NC(=O)CC(c2ccc(C)cc2)N2Cc3ccccc3C2=O)cc(OC)c1 (configuration not stated) -17.3%, Cc1ccccc1NS(=O)(=O)c1ccc2[nH]cc(C(=O)NC(C)c3ccccc3)c(=O)c2c1 (configuration not stated) 6.4%, CCc1nn2c(=O)cc(COC(=O)c3ccc(NC(=O)c4cccs4)cc3)nc2s1 21.8%, COc1ccccc1C(=O)Nc1nc2nc(-c3ccccc3)cc(=O)n2[nH]1 7.31%, c1cc(CN2CCCNCCNCCCNCC2)ccc1CN1CCCNCCNCCCNCC1 0.847%, COc1ccccc1CCNC(=O)C(=O)NCC(c1cccs1)S(=O)(=O)c1ccc(C)cc1 (configuration not stated) 2.51%, COc1ccc(Nc2nnc(-c3cc4c(ccc5ccccc54)oc3=O)s2)cc1 1.27%, CCOc1ccccc1CNC(=O)Cn1ncn2nc(-c3cccs3)cc2c1=O -2.76%, O=C1C(=O)N(C2CCN(C(=O)c3ccc(Cl)cc3)CC2)CCN1Cc1ccc(F)cc1 31.8%, Cc1cc(Nc2ccccc2C)nc(-n2nc(C)cc2C)n1 -7.03%, Cc1n[nH]c(C)c1S(=O)(=O)N1CCCC(C(=O)Nc2ccc(Br)cc2)C1 (configuration not stated) 6.06%, COc1ccc(CCNC(=O)c2cc(C)nc3c2c(C)nn3-c2ccc(C)cc2)cc1OC -7.38%, CCN(CC)CCCNC(=O)c1ccc2nc(N3CCCCC3)sc2c1 9.84%, CCOc1ccccc1CN1CCc2nc(N3CCN(c4ccccc4F)CC3)ncc2C1 1.14%, CCOc1ccccc1C(=O)N(Cc1cc(OC)c(OC)c(OC)c1)C1CCS(=O)(=O)C1 (configuration not stated) -0.498%, CCCN(C(=O)c1cn(C)c(=O)c2ccccc12)c1ccccc1C 22.7%, Cc1nc(CC(=O)Nc2cc(Cl)ccc2C)cs1 -0.989%, COc1cccc(C(=O)CC2(O)C(=O)Nc3ccc(Cl)cc32)c1 (configuration not stated) 2.27%, COc1ccc(N2CCN(S(=O)(=O)CCNC(=O)C3CC(=O)N(c4ccccc4)C3)CC2)cc1 (configuration not stated) -7.62%, CCCOc1ccc(CN(C(=O)c2cc(=O)c3ccc(C)cc3o2)C2CCS(=O)(=O)C2)cc1 (configuration not stated) 7.72%, O=C(CCS(=O)(=O)c1cc(Br)cc2c1N(C(=O)C1CC1)CC2)N1CCN(c2ccc(F)cc2)CC1 16.3%, COc1cc(C2c3c(oc4ccc(F)cc4c3=O)C(=O)N2c2nc(C)c(C)s2)cc(OC)c1OC (configuration not stated) 2.04%, CCOc1ccc(NC(=O)CSc2nc3c(c(=O)[nH]2)CCCC3)cc1 5.97%, CC(C)n1cnc2c(NCCc3ccc(O)cc3)nc(-c3csc4ccccc34)nc21 -72%, COc1ccc(C)cc1NC(=O)COCc1cc(-c2cccs2)on1 7.2%, COc1ccc(CCNC(=O)CCCn2c(=O)c3ccccc3n(Cc3ccc(C)cc3)c2=O)cc1OC 13.5%, CC1(C)[C@H](O[C@H]2O[C@H](C(=O)O)[C@@H](O)[C@H](O)[C@H]2O[C@@H]2O[C@H](C(=O)O)[C@@H](O)[C@H](O)[C@H]2O)CC[C@@]2(C)[C@H]1CC[C@]1(C)[C@H]2C(=O)C=C2[C@H]3C[C@@](C)(C(=O)O)CC[C@]3(C)CC[C@]21C -15.4%, CCOc1ccccc1Nc1sc(C(=O)c2ccccc2)c(N)c1C(=O)NCCc1ccccc1 6.29%, COc1ccccc1OCCn1c(COc2cc(C)ccc2C)nc2ccccc21 -2.29%, Cc1nn2c(C)c(C(=O)N3CCN(c4ccccc4)CC3)cnc2c1-c1ccccc1 -3.01%, CC(C)CNc1nc(NC(C)(C)C)nc(Oc2ccc(=O)n(-c3ccccc3)n2)n1 -29.3%
